From PubChem BioAssay AID1963576 (National Center for Advancing Translational Sciences (NCATS), 2024)
Out of some 46,000 compounds screened, about 60 (0.1%) were called active. Inconclusive results (about 3%) are left out. Calls follow the shape of the dose curve; as a rule, active = well fitted inhibition curve with a large enough effect; inconclusive = small, poorly fitted or top-dose-only effect; inactive = no such curve, though single readings can be large or run the other way. Some of the results follow.

Assay: Primary qHTS assay for Inhibitors of ovarian cancer metastasis using an organotypic tumor microenvironment (TME) model. Also: nearly all actives have a fitted effect of over 65% in size.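 As to Potency: count of GFP cancer cells still attached after washing and fixation.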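 As to activity change, negative = inhibition: plate controls were DMSO wells for no effect and tomatine positive control wells for full effect.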
Settings: SKOV3ip1-GFP adhesion/invasion on 3D omental model, fluorescence; series mostly up to 45.8 µM; activity change, negative = inhibition: at the top concentration
Procedure, shortened: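 Primary human omental fibroblast/mesothelial 3D culture pre-formed 48 h. SKOV3ip1-GFP cells added with compounds (0.36-46 umol/L), incubated 2 h RT/16 h 37 C, fixed; GFP cells quantified at 488/509 nm.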
Potency is read from the fitted curve at half-maximal effect.

Activity change, negative = inhibition, inactive:
COc1ccccc1/C=C/C(=O)Nc1nc2n(n1)C(c1ccc(F)cc1)C=C(c1ccccc1)N2 (stereo unspecified) 13.8%, Cc1cccc(NC(=O)c2c(NC(=O)c3ccccc3)sc3c2CCC3)c1 6.85%, COc1ccc(CNC(=O)Cn2cccc2C(=O)c2ccccc2C)cc1 -2.55%, Cc1cccc(N2CCN(c3nc4ccccc4c4nnc(C)n34)CC2)c1C -1.47%, CCN(CC)C(=O)c1sc2c(c1C)c(=O)n(-c1ccc(OC)cc1OC)c(=O)n2CC(=O)Nc1ccccc1 2.43%, COC(=O)c1ccc(NC(=O)CC2C(=O)N(c3ccccc3)C(=O)N2Cc2cccs2)cc1 (stereo unspecified) 3.8%, COc1ccc(C(=O)c2cn(Cc3ccccc3OC)c3cc4c(cc3c2=O)OCO4)cc1 -11.3%, CC(C)c1ccc(C2NC(=O)c3c(sc4c3CCN(C)C4)N2)cc1 (stereo unspecified) -0.347%, CCc1cccc(NC(=O)CC(c2ccc(OC)cc2)N2Cc3ccccc3C2=O)c1 (stereo unspecified) -12.6%, Cc1cc(C)cc(NC(=O)CCn2cnc3ccccc3c2=O)c1 11.3%, CC(=O)N1CCCC1c1nc2ccccc2n1Cc1cccc(C)c1 (stereo unspecified) 11.1%, CSc1ccc(CCNC(=O)c2ccc(-n3c(C)cc4c3CCC(C)C4)cc2)cc1 (stereo unspecified) -9.36%, CCCCC(=O)OC1=CN(Cc2ccccc2)S(=O)(=O)c2ccccc21 2.59%, CCOc1ccc(N(CC(=O)OC)S(=O)(=O)c2ccc3c(c2)n(C)c(=O)c(=O)n3C)cc1 -2.13%, COc1ccc(NC(=O)c2ccc(NC(=O)CCS(=O)(=O)c3cccs3)cc2)cc1Cl -0.94%, C=CCC(CC=C)(CNC(=O)C(=O)Nc1ccc(Br)cc1)c1ccc(OC)c(OC)c1 -1.55%, O=C(NCC(c1ccc2c(c1)OCO2)N1CCN(c2ccccc2)CC1)c1ccc(F)c(F)c1 (stereo unspecified) -4.08%, Cc1ccc(OCCCn2c(-c3ccc(Cl)cc3)nc3ccccc3c2=O)cc1C 1.38%, CCCN[C@H]1CCc2nc(N)sc2C1 -5.55%, CCc1nnc(NC(=O)CSc2nccn2Cc2ccc(Cl)cc2)s1 -6.42%, CCCc1nnc(SCc2cc(=O)c3c(C)cc(C)cc3[nH]2)n1C 5.17%, Cn1cccc1-c1cc2n(n1)CCC(=O)N2CCCC(=O)NCc1cccc(Cl)c1 4.93%, CCc1ccc(CNC(=O)Cn2nc(C)c3nn(-c4ccc(Cl)cc4)c(C)c3c2=O)cc1 -7.32%, COCCNC(=O)c1ccc2c(c1)ncn2-c1cc(C)ccc1OC 0.731%, CCOc1ccc(NS(=O)(=O)c2c(C)nc3sc(CC)nn3c2=O)cc1 1.04%, CC(C)(C)Cn1c(N)nc2ccc(-c3[nH]c(C(C)(C)C)nc3-c3ccc(F)cc3)nc21 2.82%, CCS(=O)(=O)c1ncc(N(Cc2ccccc2)Cc2ccco2)c(C(=O)Nc2ccccc2C)n1 3.67%, CCc1ccccc1S(=O)(=O)Cc1ccc(C(=O)NCCc2ccc(Cl)cc2)o1 1.57%, CSCCC(NS(=O)(=O)c1ccc2c(c1)oc(=O)n2C)C(=O)NCc1ccc(Cl)cc1 (stereo unspecified) -15.4%, Cc1nnc(NC(=O)CSc2nccn2Cc2ccccc2)s1 40%, CCOC(=O)c1ccc(-n2c(CCC(=O)O)ccc2-c2ccccc2)cc1O 1.57%, Cc1cc(F)ccc1Nc1nc2ccc(Cl)cc2n2cnnc12 -1.9%, O=C(Cc1ccc(Cl)cc1)NCCc1csc2nc(-c3ccccc3F)nn12 4.61%, Cc1cc(=O)oc2cc(O)ccc12 -10.2%, O=C(NC1CCCCC1)c1ccc2c(c1)N(Cc1cccc(Cl)c1)C(=O)c1ccccc1S2(=O)=O 2.33%, COC(=O)c1ccccc1NC(=O)CSc1nc2ccccc2nc1Cc1ccc(F)cc1 -9.16%, COc1ccc(CNC(=O)CCc2c(C)nc3cc(-c4ccc(OC)cc4OC)nn3c2C)cc1 -8.04%, CCOC(=O)c1cc(-c2ccc(F)cc2)n(CCC(=O)NC2CCC(C)CC2)c1C (stereo unspecified) -6.64%, COc1cccc(-c2ccc(NC(=O)C3=C(C(=O)O)CCC3)c(F)c2)c1 11.3%, CCc1ccc(NC(=O)CSc2nc(-c3ccc(C)cc3)nc3c2Cc2c(CO)cnc(C)c2O3)cc1 -6.54%, CCOc1ccc2nc(N3CCCC(C(=O)Nc4ccccc4CC)C3)sc2c1 (stereo unspecified) -0.201%, Fc1ccc(Nc2nc(-c3cccc(Cl)c3)c3c(n2)-c2ccccc2OC3)c(F)c1 0.561%, Fc1ccc(-c2cc(-c3ccc(F)cc3)c3c(n2)-c2cc(F)ccc2OC3)cc1 1.84%, Cc1cccc(NC(=O)Cn2c(=O)n(CC3CCC(C(=O)NCCc4ccccc4)CC3)c(=O)c3ccccc32)c1 (stereo unspecified) 1.07%, COc1ccc(S(=O)(=O)n2nc(-c3ccco3)nc2NCc2ccc(C(C)C)cc2)cc1 3.89%, Clc1cccc(-c2nnnn2Cc2cccnc2)c1Cl -20%, Cc1c(NC(=O)c2cccs2)cccc1-c1nc2cc(Cl)ccc2o1 2.57%, COc1ccc(S(=O)(=O)NCc2cccn2Cc2cc(C)ccc2C)cc1OC 0.952%, CCc1nnc2c3ccccc3nc(Nc3cc(C)cc(C)c3)n12 -3.49%, COc1ccc(-c2cc(-c3nc(-c4cc(OC)c(OC)c(OC)c4)no3)[nH]n2)c(OC)c1 2.64%, CCOc1ccc(C(=O)Nc2ccc(OCc3cc(=O)n4cccc(C)c4n3)cc2)cc1 7.2%, Cc1ccc(-n2ncc(C(=O)NCCN3CCN(C)CC3)c2C2CCN(C(=O)OC(C)(C)C)CC2)cc1C 14.3%, COc1cccc(NC(=O)Cn2c(=O)n(Cc3ccc4c(c3)OCO4)c(=O)c3oc4ccccc4c32)c1 -1.83%, O=C(CCCCCCNC(=O)c1cnc(N(c2ccccc2)c2ccccc2)nc1)NO -12.6%, CC(=O)c1cccc(NS(=O)(=O)c2c(C(=O)N3CCCCCC3)c(C)n(C)c2C)c1 -2.22%, COc1ccc2c(c1)c(N1CCCC1=O)c(C(=O)Nc1ccc(OC)c(Cl)c1)n2C 3.06%, CCOc1ccc(CNC(=O)Cn2c(=O)c3cccn3c3cccnc32)cc1 8.6%, O=c1[nH]c(=O)n([C@H]2C[C@@H](O)[C@@H](CO)O2)cc1I 3.17%, COc1cc(NC(=O)c2noc3c2CC(C)CC3)c(OC)cc1Cl (stereo unspecified) 2.96%, CCc1ccc(NC(=O)c2cc(S(=O)(=O)NC3CCCCCC3)ccc2F)cc1 -4.26%, O=C(Nc1ccccc1)c1cccc(N2CCCS2(=O)=O)c1 2.63%, COc1ccc(C(CC(=O)Nc2ncccc2C)N2Cc3ccccc3C2=O)cc1OC (stereo unspecified) 37.4%, Cc1nn2c(-c3ccccc3)cc(-c3ccccc3)nc2c1-c1ccc(Cl)cc1 -5.52%, Cc1nn(CCCC(=O)Nc2ccccc2C(F)(F)F)c(=O)c2nn(-c3ccccc3)c(C)c12 1.51%, CC1CCC(NC(=O)c2ccc(CSc3nc4ccncc4n3Cc3ccc(F)cc3)cc2)CC1 (stereo unspecified) -27.2%, COc1ccc(-n2c(SCCC(C)C)nc3sc4c(c3c2=O)CC(C(C)C)OC4)cc1 (stereo unspecified) -2.77%, O=C(Cn1c(=O)ccc2cc(S(=O)(=O)N3CCCC3)ccc21)Nc1ccccc1 -4.66%, Cc1ccc(Cl)cc1N1CCN(C(=O)c2ccc3c(Cl)c4c(nc3c2)CCCC4)CC1 19.1%, CC(=O)NCC(=O)N1[C@H]2CC[C@H]1c1cc(Nc3ncc(C(F)(F)F)c(NC4CCC4)n3)ccc12 -14.6%, O=S(=O)(Nc1ccc(O)c(Sc2nc3ccccc3s2)c1)c1cc(Cl)ccc1Cl 0.867%

outcome, inactive:
Cc1cc(C)cc(-n2ccnc2SCC(=O)Nc2ccccc2F)c1, CCOc1ccccc1NC(=O)Cn1c(=O)n(-c2ccc(C)cc2)c(=O)c2c1cnn2C, COc1ccc2c(c1)c(CC(=O)Nc1c(C)cccc1C)c(C)n2C(=O)c1ccc(Cl)cc1, Cc1ccc(C)c(N2CCN(C(=O)c3c(C)oc4nc(C)nc(N5CCOCC5)c34)CC2)c1, CCC(C)NC(=O)Cn1c(=O)n(-c2ccc(Cl)cc2)c(=O)c2c3c(sc21)CCCC3 (stereo unspecified), Cc1ccc(-n2nnnc2SCC(=O)NCCc2ccccc2)cc1C, O=C(Nc1ccc(F)cc1F)C1CCN(C(=O)c2cnn(-c3ccccc3)c2-n2cccc2)CC1, O=C(NCc1cccc(Cl)c1)c1cnc(N2CCOCC2)c2ccccc12, O=C(Nc1cc(-c2cccc(Cl)c2)nn1-c1ccccc1)c1ccccc1F, Cc1ccc(C(=O)Nc2cc(-c3cn4cccnc4n3)ccc2C)cc1C, CCC(C)(C)NC(=O)C(NS(=O)(=O)c1cccs1)c1ccccc1 (stereo unspecified), CC(C)CCNc1nc(Nc2ccccc2)c2cnn(C)c2n1, CC(CC(=O)Nc1ccc(F)cc1)S(=O)(=O)c1cc2c3c(c1)CCN3C(=O)CC2 (stereo unspecified), Cc1ccc(CNc2cc(C)nc3nc(-c4ccc(C)cc4)nn23)cc1, CNc1ccc(-c2nc(-c3ccncc3)no2)cc1[N+](=O)[O-], CCOC(=O)c1c(NC(=O)c2cc(-c3cccc(Cl)c3)on2)sc(C)c1C, CCc1ccc(-c2nc3cc(NC(=O)c4ccc(C)c(C)c4)ccc3o2)cc1, COc1cccc(NC(=O)Cn2c(=O)n(Cc3ccc(F)cc3)c(=O)c3sc4ccccc4c32)c1, COc1ccc(NC(=O)[C@H](Cc2ccccc2)N2Cc3ccccc3C2=O)cc1OC, CCc1ccc(CNC(=O)CCn2nc(C)c3c(C)n(-c4ccccc4)nc3c2=O)cc1, Cc1ccc(S(=O)(=O)c2cn(Cc3ccccc3)c3cc(N4CCOCC4)c(F)cc3c2=O)cc1, Cc1nn(-c2ccccc2)c2c1N(CCCC(=O)NC(C)c1ccccc1)C(=O)CS2 (stereo unspecified), Cc1nn(-c2ccccc2)c2c1N(CC(=O)N1CCN(c3ccc(Cl)cc3)CC1)C(=O)CS2, Cc1cc(C)n2nc(CNC(=O)c3ccc(Cl)cc3)nc2n1, COc1cccc(-c2nc(CS(=O)(=O)CC(=O)N3CCN(c4ccccc4)CC3)c(C)o2)c1

Potency, active:
Cc1ccc(C)c(NC(=O)c2nc(S(=O)(=O)Cc3ccc(F)cc3)ncc2Cl)c1 11.2 µM
